Source: PMC4336329 (PLoS ONE, 2015)
The whole screen tested about 310,000 compounds, of which about 14,000 (4.5%) showed an effect of 50% or more. Effects have a minus sign here. The list shows a part of the results.

biological target: human ether-à-go-go-related gene (hERG) potassium channel (human, UniProt Q12809); test: primary screen, population patch clamp on CHO cells stably expressing hERG
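Note: peak tail current of the secondary pulse compared with the same well before compound.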

Chain of human ether-à-go-go-related gene (hERG) potassium channel (Q12809 whole entry, looked up): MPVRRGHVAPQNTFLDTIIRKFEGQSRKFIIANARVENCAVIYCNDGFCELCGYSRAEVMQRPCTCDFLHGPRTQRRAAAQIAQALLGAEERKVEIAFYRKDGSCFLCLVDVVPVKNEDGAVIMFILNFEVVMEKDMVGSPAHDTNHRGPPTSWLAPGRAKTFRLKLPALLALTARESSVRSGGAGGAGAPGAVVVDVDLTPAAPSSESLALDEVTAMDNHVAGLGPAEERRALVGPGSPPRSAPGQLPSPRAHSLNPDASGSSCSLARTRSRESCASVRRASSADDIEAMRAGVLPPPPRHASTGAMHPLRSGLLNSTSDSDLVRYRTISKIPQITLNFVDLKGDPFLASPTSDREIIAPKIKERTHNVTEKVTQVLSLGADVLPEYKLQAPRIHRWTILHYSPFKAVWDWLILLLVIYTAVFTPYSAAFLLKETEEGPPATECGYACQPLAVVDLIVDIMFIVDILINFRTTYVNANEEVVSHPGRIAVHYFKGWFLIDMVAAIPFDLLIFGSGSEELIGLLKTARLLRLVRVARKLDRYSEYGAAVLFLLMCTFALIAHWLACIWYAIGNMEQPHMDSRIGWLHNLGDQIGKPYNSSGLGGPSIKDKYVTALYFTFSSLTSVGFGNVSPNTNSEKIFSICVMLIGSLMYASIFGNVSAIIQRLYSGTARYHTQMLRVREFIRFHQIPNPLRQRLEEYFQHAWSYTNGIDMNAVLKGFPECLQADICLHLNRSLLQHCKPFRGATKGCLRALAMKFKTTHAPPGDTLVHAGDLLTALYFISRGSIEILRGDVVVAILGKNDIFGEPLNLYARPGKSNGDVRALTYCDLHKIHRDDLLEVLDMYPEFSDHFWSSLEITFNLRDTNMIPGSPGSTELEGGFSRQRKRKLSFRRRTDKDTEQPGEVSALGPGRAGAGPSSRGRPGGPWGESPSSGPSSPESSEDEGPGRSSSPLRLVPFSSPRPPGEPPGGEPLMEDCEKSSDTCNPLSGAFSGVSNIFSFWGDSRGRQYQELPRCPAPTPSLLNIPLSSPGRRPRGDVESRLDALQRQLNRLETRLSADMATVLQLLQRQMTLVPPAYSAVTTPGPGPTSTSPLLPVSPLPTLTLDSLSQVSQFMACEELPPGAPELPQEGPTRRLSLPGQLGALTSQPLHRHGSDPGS

Compound | hERG current change (%, negative = inhibition) at 10uM [%]
CCCS(=O)(=O)N1CCC(C(=O)NCCCN(CC)c2cccc(C)c2)CC1 | -4.1
COc1ccc(S(=O)(=O)N2CCC(C(=O)Nc3ccc(OC)c(OC)c3)CC2)cc1C | 7.71
CCC(=O)Nc1ccc(C(=O)CSc2nnc(-c3ccc(NS(=O)(=O)CC)cc3)o2)cc1OC | 5.26
c1ccc2c(c1)CCCN2Cc1nnc2n1CCCCC2 | 12
CCCN(CC1CC1)C(=O)COC(=O)c1ccc(CNS(=O)(=O)c2ccc(F)c(Cl)c2)cc1 | 8.34
Cc1cccc(NC(=O)CSCC(=O)N(C)Cc2c(F)cccc2Cl)c1 | -14.4
CCn1c(NCc2c[nH]c3ccccc23)nc2ccccc21 | -18
CCN(c1ccccc1)S(=O)(=O)c1ccc(C(=O)Nc2ccncc2)cc1 | -68.7
COc1cc2c(c(OCC(=O)NC(C)C)c1)C(=O)O[C@@H](C)CCCC(=O)CCCCC2 | -3.96
O=C(CSCc1cc(=O)n2ccsc2n1)Nc1ccc(F)cc1 | 27.1
Cc1ccc(Cn2c(SC(C)C(N)=O)nc3ccccc3c2=O)cc1 (centres unmarked) | -8.84
NC(=O)CCN1CCC(c2nc3ccccc3s2)CC1 | -40.3
Clc1ccc2c(c1)-c1nnc(Br)n1-c1ccccc1S2 | -52.5
COc1ccccc1OCC(=O)O | 11
COCc1ccc(CN2CCC(n3nccc3NC(=O)C(OC)c3ccccc3)CC2)o1 (centres unmarked) | 12.9
Cc1ccc(S(=O)(=O)NCCC(=O)NCC(c2ccc(F)cc2)N2CCOCC2)cc1 (centres unmarked) | -5.84
Cc1nn(C)c(C(=O)NNC(=S)NCc2ccco2)c1Br | 37.4
CC1Cc2cc(/C(O)=C3/C(=O)C(=O)N(CCCn4ccnc4)C3c3cccc([N+](=O)[O-])c3)ccc2O1 (centres unmarked) | 17.4
CCn1c(C)nc2cc(C(=O)NNC(=O)c3ccc(C)cc3)ccc21 | -8.93
CC(C)(C)C1CCc2nc(NC(=O)Cc3cn4ccsc4n3)sc2C1 (centres unmarked) | -9.53
CC1CCCC(NC(=O)CN2C(=O)COc3ccccc32)C1C (centres unmarked) | 25
Cc1nc2ccc(-c3nc4ccccc4o3)cc2[nH]1 | -3.22

Compound | hERG current change (%, negative = inhibition) at 10uM [%]
COc1cccc(C(=O)N/N=C(\CC(C)C)c2ccccc2)c1 | 2.94
Cc1ccc(SCC(=O)OC(C)C(=O)NCc2ccccc2)cc1C (centres unmarked) | 1.1
Cc1ccc(NC(=O)CN(C)c2ccc(S(=O)(=O)N3CCN(C)CC3)cn2)cc1 | -3.45
CC(=O)c1cccc(NC(=O)c2noc3c2CCc2ccccc2-3)c1 | 19.1
O=C(CN1C(=O)NC2(CCCCCC2)C1=O)N1CCC(Cc2ccccc2)CC1 | -24.4
N#C/C(=C\c1ccc(-c2ccc([N+](=O)[O-])cc2)o1)C(=O)Nc1nc(-c2cccs2)cs1 | 2.16
CCC1(C(=O)c2ccc(Cl)cc2)C2c3ccccc3OC(=O)C21C(=O)Nc1ccccc1 (centres unmarked) | 6.26
O=C(Cn1nnc(-c2ccccc2)n1)N/N=C/c1cccc([N+](=O)[O-])c1 | -5.78
Nc1nc(Cl)cc(Sc2ccc(F)cc2)n1 | 7.51
c1ccc(-c2ccc(-n3ccnc3)cc2)cc1 | -42.4
Cn1cnnc1SCC(=O)n1c2ccccc2c2ccccc21 | 3.52
COc1ccc(CCNc2ccc(N3C(=O)CC(C)C3=O)cc2[N+](=O)[O-])cc1 (centres unmarked) | 10.6
CC(=O)Nc1ccc(SCC(=O)c2cc(C)n(CC(F)(F)F)c2C)cc1 | 6.69
COc1ccccc1N=Nc1c(C)noc1C | 10.6
CCn1c(CNc2ccc(Cl)cc2)nnc1SCC#N | 5.25
CCCCn1c(C)c(C(=O)O)c2cc(OC)ccc21 | 1.59
CNC(=O)C(=O)Nc1ccc2c(c1)N(S(=O)(=O)c1cccs1)CCC2 | -29.4
COc1ccc(S(=O)(=O)N(Cc2cc3ccc(OC)cc3[nH]c2=O)CC2COCCO2)cc1 (centres unmarked) | -24.4
COc1ccc(OC)c(S(=O)(=O)NC2CC(=O)N(c3cccc(F)c3)C2)c1 (centres unmarked) | -0.814
C/C(N)=C(/C#N)C(=O)CSc1nnc(Nc2cccc(C)c2C)s1 | -0.581
Cn1cc(C(=O)N2CCc3ccccc3C2)c(=O)c2cc(S(=O)(=O)N3CCCCC3)ccc21 | -13.9
Cc1ccc(S(=O)(=O)Cn2nnnc2C(CC(C)C)N2CCN(C)CC2)cc1.Cl (centres unmarked) | 6.39

Compound | hERG current change (%, negative = inhibition) at 10uM [%]
N#Cc1ccc(-n2nccc2-c2cnc3n(c2=O)CCS3)cc1 | 12.9
O=C(c1ccc(Oc2ccc(Cl)cc2)c([N+](=O)[O-])c1)N1CCCC1 | -63
COc1cc([C@@H]2Oc3cc(C4Oc5cc(O)cc(O)c5C(=O)[C@H]4O)ccc3O[C@H]2CO)ccc1O (some centres unmarked) | -1.99
O=C(Nc1nc2n(n1)C(c1ccccc1)CC(c1ccc(Cl)cc1)N2)c1ccco1 (centres unmarked) | -53.1
CSc1cc(C)n(-c2ccccc2C)c(=S)c1C(C)=O | 14
COc1ccc(C)cc1Nc1nc(C)nc2sc(C)cc12 | 10
O=C(O)C(Cc1c[nH]c2ccccc12)N1C(=O)C2C3c4ccccc4C(c4ccccc43)[C@@H]2C1=O (some centres unmarked) | 18
COc1ccc(-n2c(C)ccc2C)c([N+](=O)[O-])c1 | 13.5
O=S(=O)(Nc1cccc(-c2ccc(N3CCCCCC3)nn2)c1)c1ccccc1Cl | 20.2
CCC(C)NC(=O)Cn1nc(Cc2ccncc2)c2ccccc2c1=O (centres unmarked) | 4.64
Cc1cccc(NS(=O)(=O)c2ccc(C3CCCCC3)cc2)n1 | 17.1
Cc1ccsc1C(=O)NCc1ccc(Cl)cc1 | 11.1
CCCCn1c(=O)c(Cc2ccccc2)c(O)c2ccccc21 | 9.75
COc1ccc(S(=O)(=O)Nc2nc3ccccc3s2)cc1OC | -6.29
Cc1cc2n(n1)C(c1ccsc1)Nc1ccccc1-2 (centres unmarked) | -20.4
CCN(CC)c1nc2cc(OC)ccc2cc1C#N | 0.553
O=C(COc1ccccc1[N+](=O)[O-])NCCC1=CCCCC1 | 20.5
O=[N+]([O-])c1cc(Cl)ccc1Sc1cccc2cccnc12 | 10.2
Cc1cc(C(F)(F)F)nn1CC(=O)NNC(=S)Nc1cccc(Cl)c1 | 26.4
CCOC(=O)c1ccccc1NC(=O)Cn1cnc2c(cnn2-c2ccccc2)c1=O | 2.46
C=CCn1c(SCC(=O)Nc2ccc(NC(C)=O)cc2)nc2sc(C)c(C)c2c1=O | 6.04
COc1ccc(S(=O)(=O)N2CC(=O)Nc3ccccc32)cc1Cl | 13.4

Compound | hERG current change (%, negative = inhibition) at 10uM [%]
COc1ccc(C=O)cc1OS(=O)(=O)c1ccccc1[N+](=O)[O-] | -3.35
Cn1cc(C(=O)NCCO)c(=O)c2ccccc21 | 6.95
CC(CC(=O)Nc1ccc(F)cc1)S(=O)(=O)c1ccc2c(c1)NC(=O)CO2 (centres unmarked) | 7.5
COc1ccc(C)cc1S(=O)(=O)Nc1cccc(SC)c1 | 0.767
COc1cccc(C2C(C#N)=C(N)Oc3cc(C)n(Cc4ccccn4)c(=O)c32)c1OC (centres unmarked) | 3.7
Cc1ccc(CNC(=O)c2nc3nc(C)cc(C)n3n2)cc1 | 14.4
CCOc1ccc(N(C(C)C(=O)N2CCOCC2)S(C)(=O)=O)cc1 (centres unmarked) | 11
O=C(O)c1ccc(COc2ccccc2C=C2C(=O)c3ccccc3C2=O)cc1 | 28.2
COc1ccc(/C=N/NC(=O)c2ccc(Cl)cc2)cc1Cn1cc(Cl)cn1 | 7.52
CCOC(=O)c1c(NC(=O)CSc2nnc(Cc3csc(N)n3)n2C)sc(C)c1C | -51.8
O=S(=O)(c1ccc(Cl)cc1)N(Cc1ccccn1)Cc1ccccn1 | -15.3
CC(=O)N1CCC(C(=O)NC2CC(C)(C)Cc3c2cnn3-c2ccc(F)cc2)CC1 (centres unmarked) | -25.3
O=C(c1ccc(N2CC3CC(C2)c2cccc(=O)n2C3)c([N+](=O)[O-])c1)N1CCCCC1 (centres unmarked) | -27.9
O=C(NC(NCc1ccccc1)C(Cl)(Cl)Cl)c1cccnc1 (centres unmarked) | 6.37
CCCCc1ccc(NC(=O)CSc2nnc(C)c(=O)n2N)cc1 | -23.9
Cc1nc(C)c(C(=O)Nc2cccc(F)c2)s1 | 6.85
O=C(CN1C(=O)C2CC=CCC2C1=O)NC1CCCCC1 (centres unmarked) | 18.9
NS(=O)(=O)c1ccc(CCNc2ncnc3c2c(-c2ccccc2)cn3-c2ccc(F)cc2)cc1 | 4.31
CN(C)C(=O)c1ccc(NC(=O)COC(=O)CC23CC4CC(CC(Br)(C4)C2)C3)cc1 | -10.1
COc1cccc(-n2nnnc2SCC(=O)N2CCCc3ccccc32)c1 | -11.3
